# Experimental data published in paper PMC4336329 (PLoS ONE, 2015).
# Screen size: about 310,000 compounds; about 14,000 (4.5%) showed an effect of 50% or more. Effects have a minus sign here. This is one part of the list.
# Molecular target: human ether-à-go-go-related gene (hERG) potassium channel (human, UniProt Q12809)
# Experiment: primary screen, population patch clamp on CHO cells stably expressing hERG
# 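Further: peak tail current of the secondary pulse compared with the same well before compound.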
# Sequence of human ether-à-go-go-related gene (hERG) potassium channel (Q12809 whole entry, looked up): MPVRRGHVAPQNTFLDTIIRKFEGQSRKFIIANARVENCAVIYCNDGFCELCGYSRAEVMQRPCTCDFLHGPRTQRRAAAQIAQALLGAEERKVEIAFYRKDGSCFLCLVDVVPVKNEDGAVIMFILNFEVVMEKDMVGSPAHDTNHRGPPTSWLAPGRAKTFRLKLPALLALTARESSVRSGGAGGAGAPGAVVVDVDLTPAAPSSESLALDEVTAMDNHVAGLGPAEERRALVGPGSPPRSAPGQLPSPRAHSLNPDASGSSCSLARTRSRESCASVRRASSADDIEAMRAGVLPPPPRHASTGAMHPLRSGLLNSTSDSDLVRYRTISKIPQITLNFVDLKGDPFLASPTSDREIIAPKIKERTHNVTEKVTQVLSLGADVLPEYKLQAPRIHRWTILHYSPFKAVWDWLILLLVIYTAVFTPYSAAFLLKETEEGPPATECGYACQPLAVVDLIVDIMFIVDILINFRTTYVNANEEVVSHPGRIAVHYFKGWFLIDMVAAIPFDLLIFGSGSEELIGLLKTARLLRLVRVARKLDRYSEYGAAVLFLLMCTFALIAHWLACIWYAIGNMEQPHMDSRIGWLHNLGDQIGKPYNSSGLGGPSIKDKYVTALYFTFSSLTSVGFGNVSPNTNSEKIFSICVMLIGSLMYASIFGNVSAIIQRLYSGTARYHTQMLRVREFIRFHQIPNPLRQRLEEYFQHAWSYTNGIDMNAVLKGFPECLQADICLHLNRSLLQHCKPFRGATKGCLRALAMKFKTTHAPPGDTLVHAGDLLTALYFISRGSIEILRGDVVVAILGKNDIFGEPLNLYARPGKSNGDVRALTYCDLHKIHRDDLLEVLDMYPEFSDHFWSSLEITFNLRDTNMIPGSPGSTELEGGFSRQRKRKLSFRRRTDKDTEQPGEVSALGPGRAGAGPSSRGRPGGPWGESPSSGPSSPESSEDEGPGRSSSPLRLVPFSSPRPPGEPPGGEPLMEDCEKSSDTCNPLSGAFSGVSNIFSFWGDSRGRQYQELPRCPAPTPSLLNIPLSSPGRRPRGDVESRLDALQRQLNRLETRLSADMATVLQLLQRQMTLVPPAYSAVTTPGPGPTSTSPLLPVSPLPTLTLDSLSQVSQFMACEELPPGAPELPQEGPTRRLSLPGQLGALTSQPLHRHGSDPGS
row,SMILES,"hERG current change (%, negative = inhibition) at 10uM"
1,O=C(CN1C(=O)c2ccccc2C1=O)N1CCN(C2c3ccccc3-c3ccccc32)CC1,-23.1%
2,COc1cc(OC)nc(/N=C/NO)n1,9.03%
3,COc1ccc(NCN2C(=O)CCC2=O)cc1,2.65%
4,COc1ccc(NC(=O)Cn2nnc(-c3ccccc3NS(=O)(=O)c3ccccc3)n2)cc1,3.03%
5,NC(=O)C(=O)N/N=C/c1c2ccccc2cc2ccccc12,-11.1%
6,c1ccc(-c2cn(C[C@H]3CC[C@H](Cn4cc(-c5ccccn5)nn4)O3)nn2)nc1,-9.3%
7,O=C1C2C3C=CC(CC3)C2C(=O)N1c1ccc(Br)cc1[N+](=O)[O-] (stereo not shown),19.4%
8,Cc1ccc(OC(C)C(=O)Nc2ccccc2C(=O)NCc2cccnc2)cc1C (stereo not shown),-16.9%
9,CCCC(=O)Nc1cnc(NC(=O)c2cccc(F)c2)cc1C,-6.18%
10,C=CCn1c(O)c(N=NC(=S)Nc2ccccc2F)c2ccccc21,16.2%
11,CCOc1cc(C(=O)NCCCn2ccnc2)cc(OCC)c1OCC,-0.536%
12,O=C1N(c2ccccc2)C(c2ccccc2)N2CCCN12 (stereo not shown),1.78%
13,CCN(CC)CC(O)COc1ccccc1C(=O)CCc1ccccc1 (stereo not shown),-3.49%
14,C/C(=N\NC(=O)CN(c1ccccc1Br)S(C)(=O)=O)c1cccs1,20.4%
15,Cc1cc(C)c2nc(NC(=O)c3cc(C)on3)sc2c1,5.04%
16,Cc1ccc(OCc2ccc(C(=O)O)o2)cc1C,1.76%
17,CCCOc1ccc(N2CC(C(=O)Nc3ncccc3C)CC2=O)cc1 (stereo not shown),-8.03%
18,O=C(NCc1ccccc1)NC1(C(=O)Nc2ccc3c(c2)OCCO3)CCCCC1,2.32%
19,CC(C)(C)c1ccc(Oc2coc3cc(OCC(=O)O)ccc3c2=O)cc1,-20.9%
20,CCN(CC)CCCn1c2c(c(SCC(=O)Nc3nc4ccccc4s3)nc1=O)CCC2,-71.2%
21,CCOC(=O)CC(C#N)c1c[nH]c2ccccc12 (stereo not shown),20.6%
22,COc1ccc(CN2CCN(Cc3csc(C(C)=O)c3)CC2CCO)c(C)c1C (stereo not shown),-58.1%
23,COc1ccc(-c2ccc(C(=S)N3CCN(C(C)=O)CC3)o2)cc1,-40.5%
24,COc1ccc(C2c3ccc(O)cc3Oc3ncn4nc(-c5ccccn5)nc4c32)cc1OC (stereo not shown),-71.3%
25,COc1ccc(OCCCC(=O)Oc2ccc(OC)cc2)cc1,0.9%
